Laboratory results reported in publication PMC10726135.
This is one part of the list. At the low end of the ranking, values are background and their order means little. Measured with an extract: partners may take part in the binding.

Each sequence was assayed against T1, HNF4alpha8 (COS-7 nuclear extract) (UniProt P41235-5) (assay: protein-binding microarray). Conditions: COS-7 nuclear extract on double-stranded Agilent 4x180k PBM; binding buffer, salt, pH and temperature not given; high values mean tight binding; double strand, one strand shown; sequences stand for … in …GCCTAGGGAGATTAGAGTATCGGTCGA.
T1 sequence: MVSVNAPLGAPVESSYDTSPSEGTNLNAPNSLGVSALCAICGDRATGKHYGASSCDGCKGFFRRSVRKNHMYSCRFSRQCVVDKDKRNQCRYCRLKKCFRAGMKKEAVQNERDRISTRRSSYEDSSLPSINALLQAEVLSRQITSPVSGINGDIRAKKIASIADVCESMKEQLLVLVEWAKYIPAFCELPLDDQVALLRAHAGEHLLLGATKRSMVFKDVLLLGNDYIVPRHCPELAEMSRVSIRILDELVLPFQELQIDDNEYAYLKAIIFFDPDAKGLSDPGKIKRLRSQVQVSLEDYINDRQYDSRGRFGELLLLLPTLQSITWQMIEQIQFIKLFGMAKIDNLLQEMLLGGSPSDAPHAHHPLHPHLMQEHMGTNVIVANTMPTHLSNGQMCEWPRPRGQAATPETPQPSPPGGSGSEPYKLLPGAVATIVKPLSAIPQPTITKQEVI
TACACAAAAGAGCTTTGAGTCTGGTGTTTC was tested, and the binding signal (log2 normalized intensity) was 0.112. AAATCTTAGAGAACACTCCTCCCCTTTTCT was tested, and the binding signal (log2 normalized intensity) was 2.49. GGGGAAATGACCTTTGTCCAGCTGTGCCGA showed a binding signal (log2 normalized intensity) of 7.01. ACAGCCCTGACATTCTTGAGCTGCTAAACC was tested, and the binding signal (log2 normalized intensity) was -1.22. TCTGGCTTGGCCCCCGGACCCAAAGTAAAC was tested, and the binding signal (log2 normalized intensity) was 4.18. Sequence GACCCTTATCAGCCTAGACAAGGCACCAAA has a binding signal (log2 normalized intensity) of -1.42. With CTTAAGTTGTACCTGACTAAAACCTGCTGC the binding signal (log2 normalized intensity) was -1.41. For ACATTCTGGAATGATACGCCGGCCAATCCG, the binding signal (log2 normalized intensity) was -1.35. Sequence CTCCATCTCCTCCACCAGCTTGCTGCAGAT has a binding signal (log2 normalized intensity) of -1.41. In the case of TAACATCTAACAGCTGATGAGGCACCAACA, the binding signal (log2 normalized intensity) is reported as -1.26. With CTGGTCCTCAGGCCTTTGGACCCAGACTGA the binding signal (log2 normalized intensity) was 5.32. For TGATGCCTGACTCAAGAAAGGATCTCACCC, the binding signal (log2 normalized intensity) was -1.27. With CTTTTGGGATCAGCAATGCTCAGCCCACCT the binding signal (log2 normalized intensity) was -1.11. GTTTACTAAAGGAAGGGAGGTGAGTGCTAG showed a binding signal (log2 normalized intensity) of -1.25. With TCAGCCTTGGGGCCATTCCAGTTTTGGAGA the binding signal (log2 normalized intensity) was -0.552. CCCTCGACGCGCCGGCGCAGCCGCGCTCCG was tested, and the binding signal (log2 normalized intensity) was -1.23. GGTTCTTCCACGACTCCCCCGCTCACCCCT gave a binding signal (log2 normalized intensity) of 5.08. CCGCGACAAGCGTCGCTGAGTGGAGGCCCA gave a binding signal (log2 normalized intensity) of -1.04. In the case of CCTTGGACTCCTGGACTCAAGGAATCCTCC, the binding signal (log2 normalized intensity) is reported as 3.36. GAACTGTCGCAGAAAACACAGAGATCTGAT was tested, and the binding signal (log2 normalized intensity) was -1.43. Work on GCTTATCACTGGTGATGTGAACCTCGATCC yielded a binding signal (log2 normalized intensity) of 3.96. Work on CTTTAGTCAGAGATTTCTTTACCATACCAG yielded a binding signal (log2 normalized intensity) of -0.974. With TCTAAGACCCATCCCTCAGGGTCCATATCC the binding signal (log2 normalized intensity) was 3.79. TTATGCTTGCAGGTGTCAGGGGTCAATGTG showed a binding signal (log2 normalized intensity) of 5.14. AATAACTGCTTTGTGGCATCAGGGTCCACA showed a binding signal (log2 normalized intensity) of 3.07. With AGTCCAAAGTCTGCAGGGTAGGCAGACAGG the binding signal (log2 normalized intensity) was 1.66. GTGTTCACAGGTGACCTCTGGCCACTGCAG showed a binding signal (log2 normalized intensity) of 3.51. AAACCTTTGACCAATTGACCCTATCCACAT gave a binding signal (log2 normalized intensity) of 3.86. Sequence TCAATACTCCACAAGACCACAAGGTGGCGA has a binding signal (log2 normalized intensity) of -1.51. AATAAATCAAGATCACTGCCTTGGAGGCAC showed a binding signal (log2 normalized intensity) of -1.36. Sequence AGTTTGGTTTAAAGTTCAAGTCATAACTGG has a binding signal (log2 normalized intensity) of 2.53. For AGCAGGTTGTACCTTGACCCAAGAAATAAA, the binding signal (log2 normalized intensity) was 4.67. Work on AGGAGATTTGGCTTTGAATTCCACTTCTAC yielded a binding signal (log2 normalized intensity) of -0.378. With CAGTGGGGACGCCTTCCCCTGCCACTTTCA the binding signal (log2 normalized intensity) was -1.25. In the case of GTAAACTGGCCAGAAGGTCAGAGATCAGGT, the binding signal (log2 normalized intensity) is reported as 2.47. GTGAGCATGGCTGTGTTCCAATAAACTTCA was tested, and the binding signal (log2 normalized intensity) was -0.863. In the case of TTGCTCTGCTTAAACCTTTCAAGGGATTCC, the binding signal (log2 normalized intensity) is reported as -0.439. For TGCCACGCAATGCATAGCAGAAACATAGAA, the binding signal (log2 normalized intensity) was -1.35. With CTGCCAAGACACAGAGAAAAAGAAGGTTGG the binding signal (log2 normalized intensity) was -1.21. With GATCAAGATACAGGTCAGACCCTGGAATTC the binding signal (log2 normalized intensity) was 1.33. With GCAAGAAGAAGGTGGACATCGTGGTTGCAA the binding signal (log2 normalized intensity) was -0.156. TCTCTCTGGCCTGTGGGGAGGTTATCTCGG was tested, and the binding signal (log2 normalized intensity) was 1.48. CCATCCACGGGTCCATGATTGCTGTCTACT gave a binding signal (log2 normalized intensity) of -0.391. CCTCAAATACTCTGAGTAAACACAGACTTT was tested, and the binding signal (log2 normalized intensity) was 1.31. In the case of ACTCCTCTGTACAGCTCTTGTGCTCTGGAC, the binding signal (log2 normalized intensity) is reported as 1.27. For GCCAAACTCACAGCTTTTATGTCAAACCAC, the binding signal (log2 normalized intensity) was -1.32. GCTGGAACTTGCTTCCTTATCTATATTTGC was tested, and the binding signal (log2 normalized intensity) was -0.158. Work on GCAAGGACGTGACCTTTATGGGAAAAAAAA yielded a binding signal (log2 normalized intensity) of 2.16. With GCTACTGACCAGATGTTATTACTTAATGCT the binding signal (log2 normalized intensity) was -1.37. With GATAGAGAAAGAAAAAGTACACACCTGCAA the binding signal (log2 normalized intensity) was -1.35. In the case of CTCCTTTTGTGAGAGGTCAATGTCCAGTTC, the binding signal (log2 normalized intensity) is reported as 7.01. For AGGTATTGCCCAGTATTGATGTGAGGGTAG, the binding signal (log2 normalized intensity) was 0.794. In the case of TCTCAAAAGTTTTTCCCTTCTGTTAGAATG, the binding signal (log2 normalized intensity) is reported as 0.558. CACCCCAGTGTGTTGCATGCCACAGCGCCC showed a binding signal (log2 normalized intensity) of 1.05. AGCACTGGAATGTCTCTGGTTGAAGGGGAG gave a binding signal (log2 normalized intensity) of -1.25. TAGTTAGAGTCACTGATAAGTCTGCTTGCC gave a binding signal (log2 normalized intensity) of -0.858. For AGGTTTGGCTGAGAGGGATAAAAGGGGAAA, the binding signal (log2 normalized intensity) was -1.28. CTCCCTTTGATGCGGTCAGAGTTCATTTGG was tested, and the binding signal (log2 normalized intensity) was 4.02. TGTGGACTTTTTCCTGAGGGCAGGAGGAGC gave a binding signal (log2 normalized intensity) of 1.03. TGACCTTGCAGTGGCAAGGCAAAAGAGACA was tested, and the binding signal (log2 normalized intensity) was 0.892. In the case of GTTAAACATTCAGATTCCTGAGCCCAGATC, the binding signal (log2 normalized intensity) is reported as -1.43. GAGAAAACTCCCTCAGAGATGTTTAGTGAG gave a binding signal (log2 normalized intensity) of -1.08. Work on CACAGCTCAGATCACAAAAGATGGAACAAG yielded a binding signal (log2 normalized intensity) of -1.31. For CCTGATGAAGTAAATGCAGTTTGTCAAGTG, the binding signal (log2 normalized intensity) was 0.623. With CTCTGGCCGGAGGGGAGGTTATCTCGGGGC the binding signal (log2 normalized intensity) was -1.02. In the case of CTCTCGGGCCAGCTGTACAAATAAAGGATG, the binding signal (log2 normalized intensity) is reported as -1.38. For TGATTATAAACCTGCCTACATCAAGAGGAT, the binding signal (log2 normalized intensity) was -1.13. Sequence TGAGCCTCCTCCCTCTCTCTCTTAAGAACG has a binding signal (log2 normalized intensity) of 0.386. Sequence AACTCCCTCAGAGATGTTTAGTGAGCTGTC has a binding signal (log2 normalized intensity) of -0.195. CATCTTCACGCAATACTAGCAATAACCACA was tested, and the binding signal (log2 normalized intensity) was -1.42. For GCATTTTTAAAATGTTTCAAAGTTTTTCCC, the binding signal (log2 normalized intensity) was 0.728. With TTCTATCCCCTTATCTAAATGGAGTTACTG the binding signal (log2 normalized intensity) was 0.966. ATAAGGTAACAGGCCAAAGGGCAAGAACAA showed a binding signal (log2 normalized intensity) of 3.1. For GCACACACCAAAGCCCAAGGGATCGTCCAA, the binding signal (log2 normalized intensity) was -1.33. With CAGACCCAAAGGTTAAGGAAACAAGGGTAC the binding signal (log2 normalized intensity) was 0.829. For GAGGGAGAATAAGGGTTCATCTGACTGGAA, the binding signal (log2 normalized intensity) was 0.363. In the case of TGACCGTTCTCTCCGGGTAAAGGTGAAGGC, the binding signal (log2 normalized intensity) is reported as 1.23. TGAGATTACGTAAGTGAAAGTACACAGTGC showed a binding signal (log2 normalized intensity) of 1.12. With TGGACCAAGCTCTAGCATCCCTCTCTTGCT the binding signal (log2 normalized intensity) was -1.35. CCAGGACCTTTGCTCATGTCCTCTTGCTTC gave a binding signal (log2 normalized intensity) of 2.32. In the case of GAACGCTGCGCATACCATATGCATTCCTGC, the binding signal (log2 normalized intensity) is reported as -1.3. In the case of ACTGGTTCCTGCACCCGGGCAGCCTGTGGC, the binding signal (log2 normalized intensity) is reported as -1.29. In the case of AATCAAACTCTCTGTGGATGTATGTCCAGA, the binding signal (log2 normalized intensity) is reported as 1.68. In the case of AAGTAGAATGAAAGCGGCTCAGGAAACAGC, the binding signal (log2 normalized intensity) is reported as -1.3. ATACTATTCATCCTCCAAAACCCAGTTCAT showed a binding signal (log2 normalized intensity) of 3.23. AGATGATAAGCCCTGAGTAGTTCTTCTGGT was tested, and the binding signal (log2 normalized intensity) was 0.113. With AGAGCATTTCAAACCTTTGCCCCACTCTCC the binding signal (log2 normalized intensity) was 4.38. For TCTTATTTACCGAAATGTGGGTGAGGCTGT, the binding signal (log2 normalized intensity) was 1.67. AGAACTTCTCATCTTATCTAGTTTCCTAGC gave a binding signal (log2 normalized intensity) of -1.01. For CCAACCCAACTAGAATGGAACTGAAGGCAG, the binding signal (log2 normalized intensity) was -1.4. Sequence AGGCTGAGGCAGGATGACTGCTTGAGTCCA has a binding signal (log2 normalized intensity) of 1.35. For GAAAGCCTGTTTGCTTCTGCTGTTTGTTTC, the binding signal (log2 normalized intensity) was 1.53. ATCCTTATGGTCTCTTCCAAAGCTGAAATG showed a binding signal (log2 normalized intensity) of 0.826.
